Results: publication PMC5892938
This is one part of the list. The exact form of the protein is not confirmed.

The sequences below were run against GST-SBP-ILF3 (Homo sapiens) (UniProt Q12906) (assay: targeted RNA Bind-n-Seq). Conditions: RBNS binding buffer: 25 mM Tris pH 7.5, 150 mM KCl, 3 mM MgCl2, 0.1% Tween, 0.5 mg/mL BSA, 1 mM DTT; 27 nM protein, 750 pM RNA pool; temperature not stated; high values mean tight binding; sequences stand for … in GGGUAAAAGCGAGGUGAA…CGGGACAAGUAUUAUGGG.

| Sequence | binding signal (log2 fold change) |
| --- | --- |
| UUCUUCUCUCCUCCGCCGGAGGGGGGAAGA [ctspaired] | 0.0417 |
| UUUUUUUUUUGAGACCGAGUCGGUCUCCUG [tttttgagapaired] | 0.35 |
| GGUUGUGGUGUUGGCAUCUAACACCAUAAC [gtspaired] | -0.681 |
| UUUUUUUUUUGAGAGCGAUCCGCUCUUCUA [tttttgagapaired] | -0.193 |
| UUUUUUUUUUGAGACGGAAUCCGUUUCCAG [tttttgagapaired] | 0.367 |
| UUUUUUUUUUGAGAUCGUCACGAUCUCCUA [tttttgagapaired] | 0.0488 |
| UUUUUUUUUUGAGAGUGUAACACUCUCCAG [tttttgagapaired] | 0.223 |
| GGUUGUGGUGUUGGCCUCUAACACCACAGC [gtspaired] | -0.771 |
| GGUUGUUGUGUUGGUCUCUAACACAACGAC [gtspaired] | -0.517 |
| GUGGUUGGUGUUGGAAUCUAACACCGACUA [gtspaired] | -0.668 |
| GGUGGUUGUGUUGGCGCCUAACACAACUAC [gtspaired] | -0.458 |
| GUUGUGUGUGUUGGCAUCUAACACACGCAA [gtspaired] | -0.776 |
| GUUGUGUGUGUUGGCCCCUAACACACACGA [gtspaired] | -0.109 |
| UUUUUUUUUUGAGACUGGCACAGUUUCCGG [tttttgagapaired] | 0.614 |
| GUGUGUUGUGUUGGCUCCUAACACAGCGCA [gtspaired] | -0.535 |
| GGUGUUGGUGUUGGAGCCUAACACCGAUAC [gtspaired] | -0.691 |
| GUGGUGUGUGUUGGACCCUAACACAUACCA [gtspaired] | -0.504 |
| GUUGUGUGUGUUGGAUCCUAACACACGCGA [gtspaired] | -0.44 |
| UUCUCUCUUCCUCCGAUGGAGGGAGAGGGA [ctspaired] | -0.413 |
| UUUUUUUUUUGAGAGGGGGCCCCUCUCCUA [tttttgagapaired] | 1.18 |
| GUGGUGUGUGUUGGAGCCUAACACAUACCA [gtspaired] | -0.88 |
| UUUUUUUUUUGAGAUGGGCCCCAUCUCCGG [tttttgagapaired] | 0.851 |
| UUUUUUUUUUGAGAGCGAAGCGCUCUCCGG [tttttgagapaired] | -0.053 |
| GUGUGUUGUGUUGGAGCCUAACACAGCACG [gtspaired] | -0.568 |
| UUUUUUUUUUGAGAGGGAAGCCCUCUCCUG [tttttgagapaired] | 0.394 |
| UUUUUUUUUUGAGACGGCGACCGUCUCCGG [tttttgagapaired] | 0.488 |

| Sequence | binding signal (log2 fold change) |
| --- | --- |
| UUUUUUUUUUGAGAUCGGGUCGAUCUCCUG [tttttgagapaired] | 0.387 |
| GGUGGUUGUGUUGGCAUCUAACACAGCCGC [gtspaired] | -0.623 |
| GUGUGGUGUGUUGGUCCCUAACACAUCACG [gtspaired] | -0.623 |
| UUUUUUUUUUGAGAGGGUCUCCCUCUCCGG [tttttgagapaired] | 0.318 |
| UUUUUUUUUUGAGACGGCGGCCGUUUCCUA [tttttgagapaired] | 0.849 |
| GUGUGUGGUGUUGGUGCCUAACACCACGCG [gtspaired] | -0.157 |
| GUGUGGUGUGUUGGCUUCUAACACACCGCG [gtspaired] | -0.545 |
| GUGUGUGGUGUUGGAACCUAACACCGCGCG [gtspaired] | -0.722 |
| UUUUUUUUUUGAGACUGUAGCAGUCUUCUA [tttttgagapaired] | 0.529 |
| UUUUUUUUUUGAGACGGAUACCGUCUUCUA [tttttgagapaired] | 0.338 |
| GUUGUGUGUGUUGGAGCCUAACACACACGA [gtspaired] | -0.181 |
| UUUUUUUUUUGAGAGGGACUCCCUCUCCAG [tttttgagapaired] | 0.575 |
| UUUUUUUUUUGAGACGGCGACUGUCUCCUG [tttttgagapaired] | 1.14 |
| UUUUUUUUUUGAGAGCGAGCCGUUCUCCGG [tttttgagapaired] | 0.416 |
| UUUUUUUUUUGAGAUGGAUGCCAUCUCCUG [tttttgagapaired] | 0.177 |
| UUUUUUUUUUGAGACUGAGCCAGUCUCCUA [tttttgagapaired] | 0.372 |
| UUUUUUUUUUGAGACGGUUGCCGUCUUCUA [tttttgagapaired] | 0.363 |
| GUGUGUGGUGUUGGCUCCUAACACCGCGCA [gtspaired] | -0.546 |
| UUUUUUUUUUGAGAGCGGCACGCUCUCCUG [tttttgagapaired] | 0.0299 |
| GUGGUUGGUGUUGGACUCUAACACCAGCCG [gtspaired] | -1.03 |
| UUUUUUUUUUGAGAUGGGAUCCAUCUCCUG [tttttgagapaired] | 0.161 |
| GUGUGUUGUGUUGGCGUCUAACACAGCGCA [gtspaired] | -0.559 |
| UUUUUUUUUUGAGACGGCAACCGUCUCCGG [tttttgagapaired] | 0.553 |
| GUGUUGUGUGUUGGCCUCUAACACACAGCA [gtspaired] | -0.585 |
| UUUUUUUUUUGAGAUGGGCUCCAUCUUCUG [tttttgagapaired] | 0.693 |
| UUUUUUUUUUGAGAGCGGGACGUUCUCCUA [tttttgagapaired] | 0.473 |

| Sequence | binding signal (log2 fold change) |
| --- | --- |
| UUUUUUUUUUGAGAGUGUGUCAUUCUCCUA [tttttgagapaired] | 0.179 |
| GUGUGUUGUGUUGGCUUCUAACACAGCGCA [gtspaired] | -0.791 |
| GUGUGUGGUGUUGGUAUCUAACACCGCGCG [gtspaired] | -0.509 |
| GGUUGGUGUGUUGGCAUCUAACACAUCAGC [gtspaired] | -0.588 |
| UUUUUUUUUUGAGAUGGCCGCCAUCUCCUA [tttttgagapaired] | 0.644 |
| GUGGUGUGUGUUGGUCCCUAACACACAUCA [gtspaired] | -0.727 |
| UUUUUUUUUUGAGACUGGGACAGUCUUCUA [tttttgagapaired] | 0.247 |
| UUUUUUUUUUGAGACCGCAGCGGUCUCCUA [tttttgagapaired] | 0.508 |
| UUUUUUUUUUGAGAUGGCGACCAUUUCCAG [tttttgagapaired] | 0.745 |
| UUUUUUUUUUGAGAGCGGGCCGCUCUCCAG [tttttgagapaired] | 0.634 |
| UUUUUUUUUUGAGAGGGGCCCCCUCUCCGG [tttttgagapaired] | 1.09 |
| UUUUUUUUUUGAGAUGGCUACCAUCUUCUA [tttttgagapaired] | 0.228 |
| UUUUUUUUUUGAGAUGGUAUCCAUCUCCUA [tttttgagapaired] | 0.00176 |
| UUCUCUCUUCCUCCACAGGAGGAGGAGGGA [ctspaired] | -0.592 |
| GUUGUGUGUGUUGGAUCCUAACACACGCAA [gtspaired] | -0.073 |
| GUGUGGUGUGUUGGUGUCUAACACACUAUA [gtspaired] | -0.737 |
| GUGUGGUGUGUUGGAGCCUAACACACUACG [gtspaired] | -0.858 |
| UUUUUUUUUUGAGACGGAGUCUGUCUUCUG [tttttgagapaired] | 0.438 |
| UUUUUUUUUUGAGACCGAGUCGGUCUCCAG [tttttgagapaired] | 0.93 |
| UUUUUUUUUUGAGACGGACACCGUCUCCUA [tttttgagapaired] | 0.453 |
| UUUUUUUUUUGAGAGCGGAACGCUCUCCGG [tttttgagapaired] | -0.212 |
| UUUUUUUUUUGAGAUGGUGUCCAUUUCCUA [tttttgagapaired] | 0.556 |
| UUUUUUUUUUGAGACGGUUUCCGUCUCCAG [tttttgagapaired] | 0.323 |
| UUUUUUUUUUGAGAUCGGGUCGAUCUUCUA [tttttgagapaired] | 0.162 |
| UUUUUUUUUUGAGACCGUAUCGGUCUCCGG [tttttgagapaired] | 0.128 |
| UUUUUUUUUUGAGAUCGUAUCGAUCUCCUA [tttttgagapaired] | 0.0622 |

| Sequence | binding signal (log2 fold change) |
| --- | --- |
| UUUUUUUUUUGAGAUGGGUGCCAUCUCCAG [tttttgagapaired] | 0.407 |
| UUUUUUUUUUGAGAUCGAGGCGAUUUCCAG [tttttgagapaired] | 0.433 |
| UUUUUUUUUUGAGACGGUAGCCGUUUCCGG [tttttgagapaired] | 0.627 |
| UUUUUUUUUUGAGACUGGGUCAGUCUUCUG [tttttgagapaired] | 0.532 |
| UUUUUUUUUUGAGACGGCUGCCGUCUCCUA [tttttgagapaired] | 0.918 |
| UUUUUUUUUUGAGAACGGUACGUUCUCCUA [tttttgagapaired] | 0.313 |
| UUUUUUUUUUGAGACGGUGACCGUCUCCUG [tttttgagapaired] | 0.448 |
| GUGUUGUGUGUUGGCAUCUAACACACAACG [gtspaired] | -0.593 |
| UUUUUUUUUUGAGACCGAAGCGGUCUCCUG [tttttgagapaired] | 0.376 |
| UUUUUUUUUUGAGAUGGUUGCCAUCUCCGG [tttttgagapaired] | 0.363 |
| UUUUUUUUUUGAGACGGGGGCCGUUUCCAG [tttttgagapaired] | 0.92 |
| UUUUUUUUUUGAGACUGCGGCAGUCUCCUA [tttttgagapaired] | 0.588 |
| UUUUUUUUUUGAGAGGGAAACCCUCUCCGG [tttttgagapaired] | -0.0119 |
| UUUUUUUUUUGAGACGGCAGCCGUCUCCUG [tttttgagapaired] | 0.92 |
| GUGGUUGGUGUUGGCUUCUAACACCAAUCA [gtspaired] | -0.6 |
| UUUUUUUUUUGAGACUGAUUCAGUCUCCUA [tttttgagapaired] | -0.0489 |
| UUUUUUUUUUGAGAUGGUAGCCAUCUUCUA [tttttgagapaired] | -0.00089 |
| GUUGGUGGUGUUGGUCUCUAACACCGCCAG [gtspaired] | -0.268 |
| GUGGUGUGUGUUGGACUCUAACACACAUCG [gtspaired] | -0.622 |
| UUUUUUUUUUGAGAACGGUGCGUUCUCCGG [tttttgagapaired] | 0.305 |
| UUUUUUUUUUGAGACAGUAAUAAUAAAAAA [ttttgagaunpaired] | 0.0861 |
| UUUUUUUUUUGAGAGCGGUCCGCUCUCCGG [tttttgagapaired] | 0.798 |
| UUUUUUUUUUGAGAGUGAUGCACUCUCCAG [tttttgagapaired] | 0.217 |
| UUUUUUUUUUGAGAUCGAUUCGAUCUUCUA [tttttgagapaired] | -0.362 |
| UUCCUUCUUCCUCCAAUGGAGGGAGAGGGA [ctspaired] | -0.62 |
